Reference: PubChem BioAssay AID1814 (Broad Institute, 2009)
The campaign covered roughly 300,000 compounds. About 22,000 (7.3%) were called active. Inconclusive results, whose numbers are uncertain, are shown with a selection of clear calls. Cut-off read from the data, not from the text of the source: active = activity score below about -60%; inconclusive = mostly about -28% to -61%; inactive = positive scores.

assay: Activators via SNCA 5'UTR binding, MLPCN (AID 1814); conditions: alpha-synuclein 5'UTR reporter, activators screen; hits give low values; tested at 7.5 µM

Structure (SMILES)	activity score
CCOc1ccc(-c2csc3nc[nH]c(=O)c23)cc1	active: -154%
COc1cc(/C=C2/C(=N)N3C(SC)=NSC3=NC2=O)ccc1OC(=O)c1ccco1	inconclusive: -57.8%
CC(C)(C)SCCNC(=O)COc1ccccc1	inconclusive: -59.4%
O=C(/C=C/c1cccs1)NC(=S)NNC(=O)c1ccccc1O	inactive: 103%
CCOc1ncccc1C(=O)Nc1ccc(F)c(Cl)c1	inconclusive: -46.2%
Cc1cccc(C(=O)O/N=C/c2c(N3CCOCC3)n(C)c3ccccc23)c1	inactive: 71.7%
Nc1ccc(-c2nc3cc(N)ccc3o2)cc1	inconclusive: -52.1%
CCOc1ccccc1C1CC(=O)Nc2cc3c(cc21)OCO3 (centres undefined)	inactive: 66.1%
CCN(CC)c1ccc(N=Nc2nn(C)c(C)c2[N+](=O)[O-])cc1	inconclusive: -25.6%
O=C1/C(=C\c2ccc([N+](=O)[O-])cc2)CCc2ccccc21	inconclusive: -60.1%
O=C(Nc1ccc2c(c1)OCO2)c1ccncc1	inconclusive: -53.3%
OC(c1cc(-c2ccc(Cl)cc2)nc2ccccc12)C1CCCCN1 (centres undefined)	inactive: 96.4%
COc1ccc(C(=O)N/N=C(\Cc2ncc[nH]2)c2ccccc2)cc1	inconclusive: -61%
O=C(NCC1CC1)Nc1cccc(Cl)c1	inconclusive: -54.4%
CN(C)c1ccnc(Oc2ccc(Cl)cc2)c1C#N	inconclusive: -52.2%
COC(=O)Cc1[nH]n(-c2nc3ccccc3s2)c(=O)c1C(C)=Nc1ccc(C)cc1	inactive: 97.5%
c1ccc(CN2CCC(Nc3nc(-c4cccs4)nc4ccccc34)CC2)cc1	inactive: 61.8%
c1ccc2c(-c3nn[nH]n3)cccc2c1	inconclusive: -27.1%
CCn1ncc(/C=C/C(=O)C2CC2)c1C	inconclusive: -48.9%
COc1ccc(CN2CCN(Cc3cccn3-c3ncccn3)CC2CCO)c(C)c1C (centres undefined)	inactive: 59.8%
O=C(Nc1cccnc1)c1cc(-c2ccc(Cl)cc2Cl)on1	inconclusive: -50.8%
CC1CCc2nc(NC(=O)C3COc4ccccc4O3)sc2C1 (centres undefined)	inactive: 63.1%
O=C(N[C@@H](Cc1c[nH]c2ccccc12)C(=O)NC1CC1)c1ccccc1Cl	active: -160%
Cc1nn(Cc2ccc(Cl)c(Cl)c2)c(C)c1NC(=O)c1cc(-c2ccc3c(c2)OCO3)on1	inactive: 66.3%

Structure (SMILES)	activity score
CCOC(=O)c1sc2nccc(N(C)C)c2c1N=CNOCc1ccccc1	active: -91.9%
CC(C)CC(=O)Nc1ccc(C(=O)NNC(=S)NC(=O)C2CCCCC2)cc1	inactive: 66.6%
CN1CCN(CCCC(=O)c2ccc(C3CCCC3)cc2)CC1	inconclusive: -47.7%
CCOc1ccc(-c2nnc(SCC(=O)Nc3ccc4c(c3)c3ccccc3n4CC)n2N)cc1	inactive: 84.2%
CCN(CC)CCCNC1=C(Cl)C(=O)c2ccccc2C1=O	inactive: 76.1%
O=C(NCC1CCCO1)c1cc(-c2ccccc2)nc2ccc(Br)cc12 (centres undefined)	inconclusive: -51.8%
O=C(CNS(=O)(=O)c1c(Cl)cccc1Cl)OCc1csc(-c2ccccc2)n1	inconclusive: -43.5%
COc1ccc(C(=O)Nc2sc3c(c2C#N)CCN(C(C)=O)C3)cc1	inconclusive: -71.7%
N/C(=N\OCc1ccc([N+](=O)[O-])cc1)c1ccccn1	inactive: 112%
CCCC(=O)Nc1cccc(-c2nc3ccccc3o2)c1	inconclusive: -58.7%
O=C(NC(=S)Nc1ccc(Cc2ccncc2)cc1)c1ccccc1	inconclusive: -44.7%
O=c1[nH]c(/C=C/c2ccccc2[N+](=O)[O-])nc2ccccc12	active: -190%
COC(=O)C(=C/C=C/c1cccnc1)C(=O)OC	inconclusive: -58.8%
Cc1nnc(Oc2ccccc2)c2ccccc12	inconclusive: -44.6%
Brc1ccc(-c2csc(N/N=C/c3cccnc3)n2)cc1	inconclusive: -49.7%
CN1CCN(C(c2ccc(Br)cc2)c2cc(Cl)c3cccnc3c2O)CC1 (centres undefined)	inactive: 67.2%
COCCSc1ccccc1C(=O)Nc1ccc2c(c1)OCCO2	inconclusive: -35%
Cc1nnc(N/N=C/c2ccccn2)[nH]c1=O	inactive: 117%
CC(C)CCSc1nc(N2CCOCC2)c2c(c1C#N)CC(C)(C)OC2	inactive: 57.9%
Cc1cc(C)n2c(Nc3ccc4c(c3)OCCO4)c(-c3ccccc3)nc2n1	inconclusive: -51.5%
CC[C@H]1OC(=O)C[C@@H](O)[C@H](C)[C@@H](O[C@@H]2O[C@H](C)C[C@H](N(C)C)[C@H]2O)[C@@H](CC=O)C[C@@H](C)C(=O)C=C[C@]2(C)O[C@H]2[C@@H]1C	active: -147%
O=C(Nc1ccccc1)c1oc2ccccc2c1NC(=O)C1CC1	inconclusive: -47.8%
c1ccc(CSc2ccc(-c3ccco3)nn2)cc1	inconclusive: -59.2%
O=C(c1ccc(Oc2ccccc2)cc1)c1nc2c(n1O)CCCC2	inconclusive: -49.3%

Structure (SMILES)	activity score
CCCOC(=O)Nc1cc(OC)ccc1[N+](=O)[O-]	inconclusive: -59.2%
CC(=O)c1cc(C#N)c(SCc2ccncc2)nc1C	inconclusive: -46.7%
NS(=O)(=O)c1ccc(-c2ccc(/C=C3\SC(=O)NC3=O)o2)cc1	inconclusive: -54.5%
O=C(C1COc2ccccc2O1)N1CCc2ccccc21 (centres undefined)	active: -106%
COc1ccc(C(=O)NCCC2=CCCCC2)cc1	inactive: 57%
COC(=O)C1=C(N)OC2=C(C(=O)CC(C)(C)C2)C1c1ccccc1OCC#N (centres undefined)	inconclusive: -43.1%
Cn1nc(-c2ccc(Cl)cc2)c2cc(C(=O)N3CCN(C(=O)c4ccco4)CC3)sc21	inconclusive: -55.6%
COC(=O)c1cc(-c2ccc(C)cc2)n[nH]1	active: -106%
CC(CNC(=O)c1ccccc1Cl)c1ccccc1 (centres undefined)	active: -111%
Cc1ccc(C(=O)NNC(=O)CNc2cccc(Cl)c2)cc1	inconclusive: -56.6%
CCn1cc(C=C2C(=O)c3ccccc3C2=O)c2ccccc21	inconclusive: -57.3%
Nc1ccc2oc(C3CCCCC3)nc2c1	inconclusive: -26.5%
Cc1[nH]n(C(N)=S)c(=O)c1N=Nc1ccc(Br)cc1	active: -90.5%
COC(=O)c1sc(N2CCN(Cc3ccccc3)CC2)nc1N	active: -67.9%
COc1cccc(NC(=S)NC(=O)c2c(Cl)c(C)nn2C)c1	inconclusive: -55.4%
O=C(O)COc1ccc(-c2nccc(-c3ccccn3)n2)cc1	inactive: 72.1%
CCOC(=O)C1CCN(C(=O)c2cc3cc(C)ccc3[nH]2)CC1	inconclusive: -58.8%
CC(=O)NC(c1ccc(Cl)cc1Cl)c1ccc2cccnc2c1O (centres undefined)	inactive: 85.9%
O=C(NCc1cccs1)c1cc(C2CC2)on1	inconclusive: -58.1%
CCCCN(CC)CCNC(=O)c1cc2c(-c3ccc(Cl)cc3)nn(C)c2s1	inactive: 78.9%
FC(F)Oc1ccc(-c2csc(NNC3=NCCCCC3)n2)cc1	inconclusive: -48.6%
COc1ccccc1C(=O)NNC(=S)NC(=O)c1cc(OC)c(OC)c(OC)c1	inactive: 72.5%
O=C(Nc1nc2ccccc2s1)c1ccc2c(c1)OCO2	inactive: 53.7%
CC(C)(C)Cc1nnc(NC(=O)CCc2ccccc2)s1	active: -124%

Structure (SMILES)	activity score
Fc1ccc(-c2nnc(NC3=NCCCCC3)o2)cc1	inactive: 98.3%
CCNC(=S)N/N=C/c1cn(Cc2ccccc2F)c2ccccc12	inactive: 52%
COc1cc(/C=C(\C#N)C(=O)Nc2cccc(C(=O)O)c2)ccc1OCc1ccc(C)cc1	inconclusive: -46.2%
Cc1cc(C(=O)Nc2ccc(Cl)cc2)c(C)n1Cc1cccs1	active: -67.2%
COc1ccc(C(=O)/C=C/c2ccc(O)cc2)cc1	inconclusive: -57.1%
COc1ccc(CC(=O)Nc2ccccc2C(=O)NCCc2ccccc2)cc1	active: -101%
Cc1ccc(N=c2c([N+](=O)[O-])nn(-c3ccc(Cl)cc3)n2O)cc1C	inconclusive: -50%
O=C(CSc1nc2ccccc2o1)N1CCN(c2ccc(Cl)cc2)CC1	inconclusive: -58.1%
Cc1cccc(/C(N)=N/OC(=O)c2cccc3ccccc23)c1	inconclusive: -52.3%
CCOc1ccc(N2C(=O)S/C(=C\c3cccn3C)C2=O)cc1	inconclusive: -55.9%
CCCC(=O)NC(c1ccccc1OC)c1ccc2cccnc2c1O (centres undefined)	inactive: 124%
Nc1nc(-c2cccs2)cs1	inconclusive: -54.9%
CCN(CC)c1ccc(-c2nn3c(-c4ccccc4OC)nnc3s2)cc1	inactive: 82.5%
CC(NC(=O)COC(=O)c1ccc2c(c1)S(=O)(=O)N=C1CCCCCN12)C12CC3CC(CC(C3)C1)C2 (centres undefined)	inactive: 67.8%
O=C(/C=C/c1ccco1)Nc1ccccc1N1CCCC1	active: -79.6%
COc1cccc(Cn2c(-c3nonc3N)nc3ccccc32)c1	inactive: 95.8%
Cc1cccc([C@@H]2[C@@H]3C(=O)N(Cc4ccccc4)C(=O)[C@@H]3[C@]3(C)C(=O)N(c4ccc(C(F)(F)F)cc4)C(=O)N23)c1	inconclusive: -40.5%
O=C(Nc1ccc2ccccc2c1)c1cc(F)c(F)cc1Cl	active: -140%
Cc1cc(C)cc(NC(=O)/C=C/c2ccc([N+](=O)[O-])s2)c1	active: -244%
COCCNC(=O)NC1(C(F)(F)F)Oc2ccc(Cl)cc2O1 (centres undefined)	inconclusive: -59.2%
Cc1ccc(CNC(=O)CSc2ccsc2[N+](=O)[O-])cc1	inconclusive: -45.9%
CCCCN1C(=O)Cc2c1nc(N)c1c(N)nc(N(CCC)CCC)c(C#N)c21	inactive: 54.8%
